Assay results as given in PMC4336329 (PLoS ONE, 2015).
The whole screen tested about 310,000 compounds, of which about 14,000 (4.5%) showed an effect of 50% or more. Effects have a minus sign here. The list shows a part of the results.

Each compound was assayed against human ether-à-go-go-related gene (hERG) potassium channel (human, UniProt Q12809) (assay: primary screen, population patch clamp on CHO cells stably expressing hERG).
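Also: peak tail current of the secondary pulse compared with the same well before compound.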

Sequence of human ether-à-go-go-related gene (hERG) potassium channel (Q12809 whole entry, looked up): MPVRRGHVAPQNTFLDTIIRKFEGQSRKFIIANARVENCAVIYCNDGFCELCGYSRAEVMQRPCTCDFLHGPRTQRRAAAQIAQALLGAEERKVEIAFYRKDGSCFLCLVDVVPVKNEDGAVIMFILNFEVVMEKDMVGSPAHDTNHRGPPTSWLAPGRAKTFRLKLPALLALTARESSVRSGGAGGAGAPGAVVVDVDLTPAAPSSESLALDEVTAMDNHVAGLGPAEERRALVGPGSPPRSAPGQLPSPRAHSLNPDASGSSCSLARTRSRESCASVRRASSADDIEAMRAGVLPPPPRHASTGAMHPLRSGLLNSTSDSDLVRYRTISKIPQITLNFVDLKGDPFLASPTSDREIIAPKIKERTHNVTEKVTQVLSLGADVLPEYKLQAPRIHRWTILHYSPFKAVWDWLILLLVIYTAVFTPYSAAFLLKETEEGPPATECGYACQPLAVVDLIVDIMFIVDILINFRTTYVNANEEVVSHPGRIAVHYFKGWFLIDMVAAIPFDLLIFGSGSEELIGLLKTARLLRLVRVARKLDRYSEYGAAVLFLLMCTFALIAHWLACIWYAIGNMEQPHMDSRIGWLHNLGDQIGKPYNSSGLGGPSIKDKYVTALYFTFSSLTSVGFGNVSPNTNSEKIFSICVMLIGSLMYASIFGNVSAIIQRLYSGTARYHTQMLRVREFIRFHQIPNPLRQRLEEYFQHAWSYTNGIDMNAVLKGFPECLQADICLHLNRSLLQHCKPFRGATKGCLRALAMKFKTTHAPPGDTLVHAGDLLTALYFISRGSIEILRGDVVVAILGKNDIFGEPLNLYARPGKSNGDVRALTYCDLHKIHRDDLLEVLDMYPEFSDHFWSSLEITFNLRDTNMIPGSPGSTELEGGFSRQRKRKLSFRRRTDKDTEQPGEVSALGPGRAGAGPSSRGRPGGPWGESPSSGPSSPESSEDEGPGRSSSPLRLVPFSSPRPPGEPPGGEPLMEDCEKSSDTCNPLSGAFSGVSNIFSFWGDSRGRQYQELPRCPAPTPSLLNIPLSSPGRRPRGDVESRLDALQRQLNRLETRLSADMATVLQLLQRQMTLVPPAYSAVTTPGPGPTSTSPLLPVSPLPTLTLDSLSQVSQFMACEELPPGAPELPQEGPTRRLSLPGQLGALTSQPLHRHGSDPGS

| Structure (SMILES) | hERG current change (%, negative = inhibition) at 10uM [%] |
| --- | --- |
| Cc1ccc2nc(-c3ccc(O)c(O)c3)cn2c1.Cl | 4.68 |
| CC(=O)NCCn1c(SCc2ccc(C)cc2C)nc2ccccc2c1=O | -26.5 |
| Cl.N=c1ccccn1Cc1ccccc1 | 31.5 |
| O=C(CN(C(=O)c1csnn1)c1ccc(F)c(Cl)c1)NCc1ccccc1 | -2.43 |
| CCCC(CCC(=O)Nc1nccs1)C(=O)O (centres unmarked) | 13.1 |
| O=C1CSc2ccc(S(=O)(=O)N3CCN(c4ccccc4)CC3)cc2N1 | 8.82 |
| Cc1cc(C)n(-c2nc(NC(C)(C)C)nc(NC(C)(C)C)n2)n1 | -6.46 |
| Cc1cc(Nc2n[nH]c(N)c2C#N)ccc1F | -70.2 |
| Cc1ccc(NC(=O)CSc2nc3ccccc3c(=O)n2Cc2cccs2)cc1 | 7.4 |
| COc1ccccc1NS(=O)(=O)c1ccc(C(=O)NCc2ccncc2)cc1 | -14.3 |
| Cc1ccc(C(=O)c2no[n+]([O-])c2C(=O)c2ccc(C)cc2)cc1 | -48 |
| COc1ccccc1-n1cc(-c2ccc([N+](=O)[O-])cc2)[nH]c1=S | 1.29 |
| CCN(CC)c1ncnc2sc(C(=O)N3CCN(c4ccccc4)CC3)c(C)c12 | -50.2 |
| COc1cccc(N(CC(=O)NCCSCc2ccco2)S(=O)(=O)c2ccccc2)c1 | -46.3 |
| COc1cc(C2NC(=O)NC(C)=C2C(=O)OCC2CCCO2)cc(OC)c1OC (centres unmarked) | 18.8 |
| CCN(CC)P(=O)(/C=C(\Cl)c1ccccc1)/C=C(\Cl)c1ccccc1 | -6.79 |
| COc1ccc(CCN2CC(C(=O)NCc3ccco3)CC2=O)cc1OC (centres unmarked) | -3.98 |
| CCOc1ccc(C(=O)NCCc2cnc[nH]2)cc1OCC | 21.1 |
| O=C(Cn1ccc(NC(=O)OCc2ccccc2)nc1=O)NCCCc1ccccc1 | 16.3 |
| COc1cccc(C(=O)Nc2nc(-c3ccc(S(=O)(=O)N4CCOCC4)cc3)cs2)c1 | 1 |
| COc1ccccc1CCNS(=O)(=O)c1ccc(C(=O)O)n1C | 25.9 |
| O=C1CN(C(=O)/C=C/c2ccc(Cl)cc2Cl)CCN1 | -19.2 |

| Structure (SMILES) | hERG current change (%, negative = inhibition) at 10uM [%] |
| --- | --- |
| COc1ccccc1CC(=O)Nc1ccc(Cl)cc1C(=O)O | 18.3 |
| O=C1NC(=Nc2cccc([N+](=O)[O-])c2)SC1(CO)CO | 1.09 |
| O=C1NC(=O)N(c2ccc3c(c2)OCO3)C(=O)/C1=C/c1cccs1 | 18.7 |
| CCOc1ccccc1N(C)S(=O)(=O)c1ccc2c(c1)CCN2C(=O)CCC(=O)O | 21.4 |
| CCOc1ccc(N2C(=O)C3C(c4ccc(OC)cc4OC)NC(CCSC)(C(=O)OC)C3C2=O)cc1 (centres unmarked) | -2.31 |
| Fc1ccc(Cn2cccc2C2=NC(c3ccccc3)CO2)cc1 (centres unmarked) | -0.841 |
| COCCN(CC(=O)NCc1ccc(F)cc1)C(=O)CCC(=O)Nc1ccccn1 | -1.92 |
| CCn1nc(C)c(/C=N/NC(=O)Cn2nc(C)cc2C)c1C | 3.81 |
| CC(=O)c1ccc(NC(=S)NC(C)CCc2ccccc2)cc1 (centres unmarked) | 3.94 |
| O=C(Oc1c(CN2CCOCC2)cc(Cl)c2cccnc12)c1ccccc1Cl | -11.5 |
| Cc1ccc(S(=O)(=O)N2CCCCC2)cc1C(=O)NCc1ccncc1 | 2.22 |
| CCc1ccc(/C=N\n2cnnc2)cc1 | 4.73 |
| O=C(c1cccc(-n2cnnn2)c1)N1CCOCC1 | -8.49 |
| CCc1nccn1S(=O)(=O)c1cc(OC)c(Cl)cc1OC | 7.17 |
| COc1ccc(N(CC(=O)N2CCN(C)CC2)S(=O)(=O)c2ccccc2)cc1 | -23.2 |
| COc1ccc(-n2cc(CN(C)C3CCOCC3)c(-c3cccc(F)c3)n2)cc1 | -29.1 |
| CC(=O)OCC(=O)[C@@]1(O)CC[C@H]2[C@@H]3CCC4=CC(=O)C=C[C@]4(C)[C@H]3C(=O)C[C@@]21C | 21.2 |
| CC(=O)Nc1ccc(Nc2nc(C)c([N+](=O)[O-])c(Nc3ccc(NC(C)=O)cc3)n2)cc1 | 30.3 |
| O=C(C1CCCN(S(=O)(=O)c2cccc3cccnc23)C1)N1CCN(c2ccc(F)cc2)CC1 (centres unmarked) | -67.5 |
| COc1ccc(CN(CC2CCCO2)S(=O)(=O)c2ccc(C(=O)O)cc2)cc1OC (centres unmarked) | -8.45 |
| C=CCn1c(-c2csc(-c3ccccc3)n2)n[nH]c1=S | 22.7 |
| CN(C)/C(=N\S(=O)(=O)c1ccc(Cl)cc1)c1ccc(F)cc1 | 3.4 |

| Structure (SMILES) | hERG current change (%, negative = inhibition) at 10uM [%] |
| --- | --- |
| Cn1nccc1C(=O)NC1CCCc2c1cnn2-c1ccc(C(C)(C)C)cc1 (centres unmarked) | 7.81 |
| COc1cc(S(=O)(=O)NCc2ccccc2)ccc1Br | 10.9 |
| COc1ccc(C(=O)Nc2cc(C(=O)c3ccccc3)c(C)oc2=O)cc1 | 6.39 |
| O=S(=O)(Nc1nc2ccccc2nc1-[n+]1cccc(N=C([O-])c2ccc(Cl)cc2)c1)c1ccccc1 | -1 |
| CCOC(=O)COc1ccc2nsnc2c1Cl | 9.35 |
| CN(C)c1cccc(NC2=CC(=[N+]3CCOCC3)CC(C)(C)C2)c1.[I-] | -65.6 |
| CCCCn1c(N)c(N(CC(C)C)C(=O)CCS(=O)(=O)c2ccc(C)cc2)c(=O)[nH]c1=O | -2.73 |
| O=C(C1CCN(S(=O)(=O)c2ccc3c(c2)OCCO3)CC1)N1CCc2ccccc21 | 1.53 |
| COC(=O)Cn1cnc2ccccc2c1=O | -14.6 |
| COc1ccc(-c2cc(Cl)cc3c(=O)c4ccccc4n(C)c23)cc1F | 20.9 |
| O=C(Nc1ccc([N+](=O)[O-])cn1)C1CC1 | 9.64 |
| CCOC(=O)c1c(NC(=O)COC(=O)c2ccc(NC(=O)CC#N)cc2)sc(C(=O)NC)c1C | -10.1 |
| Cc1ccc(NC(=O)Nc2nnc(CSCCOc3ccc(Cl)cc3)s2)cc1 | 4.44 |
| O=C(c1ccc(F)cc1)C1CCN(C(=O)c2ccc(F)cc2)CC1 | -22.7 |
| Cc1n[nH]c(C)c1CCNCc1ccc(OCC(O)CN2CCCCC2)cc1 (centres unmarked) | -19.3 |
| CC(=O)c1c(C)[nH]c(C(=O)OCC(=O)c2ccc(C)s2)c1C | -22.9 |
| Cc1nc2nc(-c3ccc(Cl)cc3)cn2nc1C | 7.78 |
| COc1ccccc1-c1nnc(SCC(=O)NCc2ccco2)n1N | 17.2 |
| Cc1ccc(CNC(=O)CS(=O)Cc2nc(-c3ccccc3C)oc2C)cc1 (centres unmarked) | -35.2 |
| COc1ccc(/C=C2\N=C(c3ccccc3)N(c3ccc(C(=O)O)cc3)C2=O)cc1OC | 6.76 |
| O=C(NC(=S)Nc1ccc(CN2CCOCC2)cc1)c1cccc([N+](=O)[O-])c1 | 10.7 |
| CCOc1ccc(NS(=O)(=O)N(C)C)cc1 | 3.39 |

| Structure (SMILES) | hERG current change (%, negative = inhibition) at 10uM [%] |
| --- | --- |
| CCCC(=O)NC(=S)Nc1cccc(NC(=O)c2ccccc2Cl)c1 | -3.15 |
| O=C(/C=C/c1ccccc1)Oc1ccccc1C(=S)N1CCOCC1 | -5.03 |
| CC(C)S(=O)(=O)c1ccc(C(=O)Nc2ccc(F)cc2F)cn1 | -8.17 |
| Cc1ccc(NC(=O)CSCC(=O)NCCc2ccccn2)c(C)c1 | 14.8 |
| Cc1ccc(S(=O)(=O)N(CC(=O)NCCSc2ccccn2)c2ccccc2F)cc1 | -45.5 |
| COc1ccc(OC)c(Nc2nc(N)c([N+](=O)[O-])c(N3CCOCC3)n2)c1 | 2.27 |
| CC(C)Oc1ccc(C2CC(=O)NC3=C2C(=O)CCC3)cc1 (centres unmarked) | 13.8 |
| CSc1cccc(NC(=O)C2CCN(S(=O)(=O)c3ccc4c(c3)NC(=O)CO4)CC2)c1 | 12.3 |
| N/C(=N\OC(=O)CN1C(=O)c2ccccc2C1=O)c1ccc(Cl)cc1 | -11.9 |
| O=C(NCc1cccs1)c1ccc(CS(=O)(=O)c2ccc(Cl)cc2)o1 | -24 |
| CCC(C)(C)NC(=O)CN(C(=O)CCC(=O)Nc1ccccn1)c1ccc(F)c(Cl)c1 | -1.31 |
| Cc1nnc(NC(=O)CCN2C(=O)/C(=C\c3ccccc3)SC2=S)s1 | 8.61 |
| CC(=O)NS(=O)(=O)c1ccc(N2C(=O)CC(Sc3nccc(C)n3)C2=O)cc1 (centres unmarked) | 19 |
| Cc1ccc(-c2nnn(CC(=O)N(Cc3ccco3)C(C(=O)NC(C)(C)C)c3cccs3)n2)o1 (centres unmarked) | -19.2 |
| Clc1ccc(CN=C(Nc2ccccc2)NC2CCCCC2)cc1 | -39.7 |
| Cc1nn(Cc2n[nH]c(=S)n2Cc2ccccc2)c(C)c1Cl | 14 |
| O=C(NCc1ccc(/C=N\NC(=O)C(=O)Nc2ccccc2Br)o1)C(=O)Nc1ccccc1 | 21.9 |
| Cc1cccc(N2C(=S)NC3c4cc(Cl)ccc4OC2(C)C3C(=O)N(C)C)c1 (centres unmarked) | -2.47 |
| O=C1N=c2ccccc2=C1c1sc(=S)n(NC(=O)c2ccccc2)c1O | 11.2 |
| O=C(O)c1n[nH]c2c1CCCC2 | 23.4 |
